Assay results from article PMC4336329 (PLoS ONE, 2015).
Among all 310,000 compounds or so, about 2,200 (0.71%) showed an effect of 50% or more. Effects have a minus sign here. Some of the results follow.

target: human ether-à-go-go-related gene (hERG) potassium channel (human, UniProt Q12809); experiment: primary screen, population patch clamp on CHO cells stably expressing hERG
Sequence (Q12809 whole entry, looked up): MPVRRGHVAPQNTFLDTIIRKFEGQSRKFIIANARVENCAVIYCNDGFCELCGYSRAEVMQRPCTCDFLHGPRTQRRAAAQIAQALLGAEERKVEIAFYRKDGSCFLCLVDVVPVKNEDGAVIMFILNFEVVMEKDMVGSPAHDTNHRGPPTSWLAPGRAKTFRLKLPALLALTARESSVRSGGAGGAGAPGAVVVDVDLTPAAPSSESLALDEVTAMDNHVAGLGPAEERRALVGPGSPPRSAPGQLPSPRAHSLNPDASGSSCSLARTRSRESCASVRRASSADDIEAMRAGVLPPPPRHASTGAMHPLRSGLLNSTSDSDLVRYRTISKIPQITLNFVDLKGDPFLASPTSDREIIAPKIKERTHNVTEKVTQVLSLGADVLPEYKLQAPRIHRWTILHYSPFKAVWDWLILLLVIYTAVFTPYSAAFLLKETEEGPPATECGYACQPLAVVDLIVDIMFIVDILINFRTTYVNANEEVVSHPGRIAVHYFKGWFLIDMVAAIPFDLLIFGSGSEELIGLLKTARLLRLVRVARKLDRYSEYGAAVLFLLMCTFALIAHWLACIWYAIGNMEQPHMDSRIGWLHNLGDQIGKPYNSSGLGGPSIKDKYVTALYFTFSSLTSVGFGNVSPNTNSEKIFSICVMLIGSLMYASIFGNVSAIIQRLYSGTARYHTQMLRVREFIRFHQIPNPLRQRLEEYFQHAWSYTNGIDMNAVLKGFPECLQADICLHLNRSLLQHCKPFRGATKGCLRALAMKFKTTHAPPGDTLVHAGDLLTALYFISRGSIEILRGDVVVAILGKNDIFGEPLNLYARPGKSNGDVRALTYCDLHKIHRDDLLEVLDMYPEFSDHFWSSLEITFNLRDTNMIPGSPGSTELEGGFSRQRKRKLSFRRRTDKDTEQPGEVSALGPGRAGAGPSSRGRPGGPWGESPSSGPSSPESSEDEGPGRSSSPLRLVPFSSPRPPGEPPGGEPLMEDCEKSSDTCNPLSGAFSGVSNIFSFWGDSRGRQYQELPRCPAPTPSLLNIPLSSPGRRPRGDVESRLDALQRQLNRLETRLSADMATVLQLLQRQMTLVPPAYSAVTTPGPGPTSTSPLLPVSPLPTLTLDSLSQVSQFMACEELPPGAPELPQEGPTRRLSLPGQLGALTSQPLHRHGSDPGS

SMILES | hERG current change (%, negative = inhibition) at 1uM
COc1ccc(CCNCc2ccccc2N2CCCC2)cc1.O=C(O)C(=O)O | 1.68%
COc1cc(C(C)=O)ccc1O | 13.3%
COC(=O)C(NS(C)(=O)=O)(c1c(C)[nH]c2ccccc12)C(F)(F)F (stereo not drawn) | -3.55%
CCc1c(C)nc2ncnn2c1N1CCC(C(=O)NCc2cccs2)CC1 | -4.9%
COc1ccc2c(c1OC)C(=O)N(c1ccc(C)cc1)C2=O | 0.784%
O=C(O)Cc1ccc(C(=O)c2ccc(F)cc2)s1 | 10.7%
O=C(NCc1nnc(SCC(=O)N2CCN(c3ccccc3)CC2)o1)c1ccco1 | 8.83%
CC(C)(C)c1ccc(C(=O)NCc2nnc(SCC(=O)NC3CCCC3)o2)cc1 | 9.82%
CCCN1C(=S)SC(C)(C)C1/[N+]([O-])=C/c1ccc(S(=O)(=O)NC)cc1 (stereo not drawn) | 15.9%
COc1ccc(C2Nc3ccccc3C(=O)N2Cc2ccccc2)cc1CSc1ccccn1 (stereo not drawn) | 13.7%
CC(OC(=O)c1cccs1)C(=O)NCCc1ccccc1 (stereo not drawn) | 10.2%
Cn1c(=O)c2c(nc(CN3CCN(C(=O)c4ccco4)CC3)n2CCCc2ccccc2)n(C)c1=O | -25.5%
Cc1sc2nc3ccc(N4CCCC4)nn3c(=O)c2c1C | -7.29%
CCc1nc2ccccc2n(CCOCCOCCn2c(=O)c(CC)nc3ccccc32)c1=O | 3.28%
CCCCCCCC(=O)NNC(=O)c1ccc([N+](=O)[O-])cc1 | -2.83%
CCNc1nc(NCC)nc(SCCOC(=O)Nc2ccc(Cl)cc2Cl)n1 | 0.538%
CC(CCc1ccccc1)NC(=O)C1CCN(C(=O)c2sccc2-n2cccc2)CC1 (stereo not drawn) | 6.71%
O=C(O)c1ccc(-c2ccccc2)[nH]1 | 9.63%
COCCN1C(=O)N(c2cccc(C)c2)C(=O)C1CC(=O)Nc1ccc(F)cc1 (stereo not drawn) | 0.812%
O=[N+]([O-])c1ccc(O)c(/C=N/Nc2ccccc2Cl)c1 | 23.4%
CC(NC(=O)c1cccc(S(=O)(=O)N2CCN(C)CC2)c1)C1CC2CCC1C2 (stereo not drawn) | 1.27%
CN1C(=O)NC(c2ccc(O)cc2)C2=C1CN(c1ccc(O)cc1)C2=O (stereo not drawn) | 18.6%
CCOC(=O)c1ccc(NC(=O)C(=O)NCC2CCCO2)cc1 (stereo not drawn) | 14%
CCCCC1=CC2=C(c3ccco3)C(=O)C(C)(OC(=O)c3ccc(OC)cc3)C(=O)C2=CN1CCCCO (stereo not drawn) | 3.37%
